From PubChem BioAssay AID1159614 (National Center for Advancing Translational Sciences (NCATS), 2016)
Screen size: about 45,000 compounds; about 65 (0.1%) were called active. The call rests on the fitted dose curve; in most records, active means well fitted activation curve with a large enough effect; inconclusive means small, poorly fitted or top-dose-only effect; inactive means no such curve, though single readings can be large or run the other way. This is one part of the list.

target: Galactocerebrosidase (Homo sapiens) (UniProt P54803); test: A Novel Cell-Based Assay to Identify Small Molecules for B -Galactocerebrosidase; conditions: 145M-Twi-hGALC-G270D cells, HMU-beta-Gal fluorescence, 48 h; series mostly up to 57.5 µM; activation: at the top concentration; further: 0% is about no effect; nearly all actives have a fitted effect of over 65% in size
UniProt P54803, sequence (P54803 whole entry, looked up): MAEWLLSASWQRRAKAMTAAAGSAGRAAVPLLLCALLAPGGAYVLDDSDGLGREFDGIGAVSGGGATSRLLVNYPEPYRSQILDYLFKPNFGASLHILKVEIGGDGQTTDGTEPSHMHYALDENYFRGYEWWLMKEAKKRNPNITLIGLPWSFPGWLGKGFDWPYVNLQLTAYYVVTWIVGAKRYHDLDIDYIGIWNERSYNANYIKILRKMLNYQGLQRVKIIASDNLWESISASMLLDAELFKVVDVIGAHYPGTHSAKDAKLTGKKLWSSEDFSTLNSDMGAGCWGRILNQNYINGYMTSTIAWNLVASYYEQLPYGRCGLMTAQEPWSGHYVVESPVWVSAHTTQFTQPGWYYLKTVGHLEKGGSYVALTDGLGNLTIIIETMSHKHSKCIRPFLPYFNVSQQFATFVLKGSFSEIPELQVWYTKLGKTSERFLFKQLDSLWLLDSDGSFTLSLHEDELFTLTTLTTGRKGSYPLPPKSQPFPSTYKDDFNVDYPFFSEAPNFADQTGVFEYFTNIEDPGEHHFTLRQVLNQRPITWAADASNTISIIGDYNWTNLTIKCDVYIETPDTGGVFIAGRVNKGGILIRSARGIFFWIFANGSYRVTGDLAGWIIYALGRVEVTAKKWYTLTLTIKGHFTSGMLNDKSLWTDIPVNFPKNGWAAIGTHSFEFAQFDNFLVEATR
Summary of the method: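 qHTS, 1536-well; 145M-Twi-hGALC-G270D cells (WT line also made) in DMEM/F12 + 10% FBS; compound incubation on live cells; HMU-β-gal 0.1 mM final, pH 5.2, NaTC; carbonate stop; fluorescence increase = enhanced residual activity.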

activation, inactive:
CCOc1ccc(CCNC(=O)Cn2nnc(-c3ccccc3)n2)cc1OCC -16.3%, CC(=O)Nc1cccc(C(=O)NCc2ccc3c(c2)CCN3C(=O)c2ccccc2)c1 -8.19%, CCCCNC(=O)CSc1nc2nc(C)c(Cc3ccccc3C)c(C)n2n1 -7.87%, COc1cc(NS(=O)(=O)c2ccc(NC(=O)c3ccccc3C(=O)O)cc2)nc(OC)n1 -5.02%, COc1cc(OC)c(NC(=O)NC(C)c2c(-n3cccc3)sc(C)c2C)cc1Cl (configuration not stated) 2.42%, Cc1ccc2cccc(NC(=O)c3ccc(-c4cccc([N+](=O)[O-])c4)o3)c2n1 5.03%, CCC1CCc2nc3sc(C(=O)Nc4ccc(F)cc4F)c(N)c3cc2C1 (configuration not stated) -17.6%, CCOC(=O)c1cc(C)n(CC2CCC(C(=O)Nc3ccc(Cl)cc3)CC2)c1C (configuration not stated) -22.4%, COc1ccc(C(=O)N2CC(=O)Nc3ccc(F)cc3C2c2ccc(F)cc2)c(OC)c1 (configuration not stated) -9.21%, CCOC(=O)c1sc(NC(=O)/C=C/c2ccc(OCC)cc2)c(C(=O)OCC)c1C 27.3%, COc1cccc(C(=O)Nc2cc(-c3ccccc3)no2)c1 -18.2%, CC(C)CC(=O)Nc1ccc(C(=O)OCc2cc(=O)n3nc(C(C)C)sc3n2)cc1 -5.65%, COc1ccc(/C=C/c2nc(C#N)c(NCCc3ccc(OC)c(OC)c3)o2)cc1OC -9.43%, COc1ccc(-n2c(=O)c3ccc(C(=O)NCc4ccc(C)cc4)cc3n(CC(=O)Nc3ccc(F)cc3)c2=O)cc1 -8.53%, CC(C)CC(NS(=O)(=O)c1ccc2c(c1)oc(=O)n2C)C(=O)NCCc1ccc(Cl)cc1 (configuration not stated) -17.2%, COC(=O)c1ccc(NC(=O)c2cc(S(=O)(=O)N3CCc4ccccc43)cn2C)cc1 -10.2%, O=C(CSc1cn(CCNC(=O)c2c(F)cccc2F)c2ccccc12)Nc1ccc2c(c1)OCCO2 -0.167%, Cc1ccc(NC(=O)c2oc3ccccc3c2NC(=O)c2cc3ccccc3o2)cc1 -7.65%, O=C(OCc1cc(=O)n2nc(C3CC3)sc2n1)c1ccc(F)cc1 -11.6%, CCOc1ccccc1NC(=O)Cn1cnc2onc(-c3ccc(F)cc3)c2c1=O -21.2%, Cc1cc(C)cc(NS(=O)(=O)c2ccc3[nH]cc(C(=O)N4CCCC4)c(=O)c3c2)c1 -8.02%, O=C(Nc1cccc(C(=O)N2CCN(c3ccc(Cl)cc3)CC2)c1)c1nsc2ccccc12 -11.1%, CC1=C(C(N)=O)C(c2cccc(Br)c2)n2nc(SCc3ccccc3)nc2N1 (configuration not stated) -1.66%, CCCCc1nnc(SCc2cc(=O)c3cc(C(=O)OCC)ccc3[nH]2)n1C 6.53%, O=C(NCc1cccnc1)C1CCN(Cc2cc3ccccc3n2Cc2cccc(Cl)c2)CC1 -1.11%, O=C(Cc1ccccc1)Nc1sc2c(c1C(=O)Nc1ccc(Cl)cc1)CCCC2 2.8%, O=C(NCCc1csc(-c2cccc(F)c2)n1)c1cccs1 -19.2%, Brc1ccccc1-c1ccccc1 -10.7% [at 114 µM], N#C/C(=C\c1ccc(Cl)cc1)c1nc2ccccc2[nH]1 21.1%, Cc1cccc(NC(=O)CSc2nc3c([nH]c4ccccc43)c(=O)n2C)c1C -11.2%, CN(C(=O)CSc1nc2c(c(=O)[nH]1)CCCC2)c1ccccc1 -10.6%, CCOc1ccc(S(=O)(=O)N2CCN(c3c(C)cccc3C)CC2)c2ccccc12 -11.7%, COc1ccc(-c2nc(SCC(=O)Nc3ccc4c(c3)OCO4)c(-c3ccc(OC)cc3)[nH]2)cc1 -18.6%, CCOc1ccccc1NC(=O)C1CCN(S(=O)(=O)c2ccccc2)CC1 -18.8%, COc1ccccc1CNC(=O)Cn1ncc2c3ccccc3n(Cc3ccccc3C)c2c1=O -7.42%, CC(NC(=O)Nc1ccccc1C(F)(F)F)c1c(-n2cccc2)sc2c1CCCC2 (configuration not stated) -16.5%, COc1ccccc1NC(=O)CSc1oc(-c2cccs2)nc1S(=O)(=O)c1ccc(Br)cc1 -18.9%, CCOC(=O)c1ccc(NS(=O)(=O)c2ccc(Br)s2)cc1 -9.29%, Cc1cc(C)cc(OC(=O)c2snnc2C)c1 -10.2%, O=C1Nc2ccc(S(=O)(=O)Nc3ccccc3O)c3cccc1c23 -14.6%, COc1cc(Cl)c(C)cc1NC(=O)CSc1ncc(S(=O)(=O)c2ccc(C(C)(C)C)cc2)c(=O)[nH]1 -17.8%, Cn1c2ccccc2c2c(C(=O)N3CCN(c4ccc(F)cc4)CC3)cn(C3CCCCC3)c(=O)c21 -19.4%, COc1ccc(NC(=O)CSc2nnc(-c3cccs3)o2)cc1 -22.7%, CCOc1ccccc1Nc1cc(-c2ccccc2)nc(C)n1 -10.6%, COc1cc(C(=O)Nc2ccc3oc(-c4ccccc4)nc3c2)cc(OC)c1OC -24.6%, COc1cc(NC(=O)Cn2ncc3c([nH]c4ccc(C)cc43)c2=O)cc(OC)c1OC 0.853%, CC(C)(Oc1ccc(C2CC2(Cl)Cl)cc1)C(=O)O (configuration not stated) -7.33%, COc1ccc(-c2noc(CSCC(=O)Nc3cccc(C(F)(F)F)c3)n2)cc1OC -13.6%, CCOc1ccc(C2Nc3ccccc3-c3nnc(SCc4ccccc4)nc3O2)cc1OC (configuration not stated) -5.9%, Cc1ccc(S(=O)(=O)CC(=O)Nc2sc3c(c2C#N)CCCCC3)cc1 -6.03%, CC(C)CCN(Cc1ccco1)C(=O)c1cc2c(Cl)nc3ccccc3c2s1 -13.2%, CCc1cccc(NC(=O)c2ccc(CN3C(=O)C(C)=C(c4ccc(OC)cc4)S3(=O)=O)cc2)c1 2.81%, CCC(=O)N1CCc2cc(Br)cc(S(=O)(=O)CCC(=O)NCCc3ccc(Cl)cc3)c21 -11.3%, CCOc1ccccc1NC(=O)Nc1nnc(N2CCCCCC2)s1 -8.35%, Cc1ccccc1CNC(=O)C1CCCN(S(=O)(=O)N(C)c2ccc(F)cc2)C1 (configuration not stated) -20.3%, CCCOc1ccc(-c2nn(-c3ccccc3)cc2C2NC(=O)NC(C)=C2C(=O)OC)cc1C (configuration not stated) -30.5%, COc1ccccc1C(=O)Nc1nc(-c2ccccc2)ns1 -18.8%, COc1ccccc1C(=O)NCCn1cc(SCc2ccccc2Cl)c2ccccc21 -9.61%, COC(=O)c1ccccc1NC(=O)Cn1nnc2sc(-c3ccccc3)cc2c1=O -16.8%, CCc1ccc(-c2nn(CC(=O)NC3CCCC3)c3c2cnc2ccc(F)cc23)cc1 -14.8%, COc1ccc(-c2nc(-c3ccccc3)c(-c3ccc(O)cc3)[nH]2)cc1 -9.65%, COc1ccccc1CNS(=O)(=O)c1cc2c3c(c1)CCN3C(=O)CC2 -2.09%
